Measured values reported in PubChem BioAssay AID624296 (National Center for Advancing Translational Sciences (NCATS), 2012).
Out of some 350,000 compounds screened, about 9,900 (2.8%) were called active. This list was built around the results that the source calls inconclusive (neither active nor inactive); the mix of calls is not that of the screen. The call rests on the fitted dose curve; in most records, active means well fitted activation curve with a large enough effect; inconclusive means small, poorly fitted or top-dose-only effect; inactive means no such curve, though single readings can be large or run the other way. Potencies of inconclusive entries are left out as doubtful fits.

experiment: A quantitative high throughput screen for small molecules that induce DNA re-replication in MCF 10a normal breast cells.; further: nearly all actives have a fitted effect of over 50% in size; settings: MCF 10A DNA re-replication, Hoechst nuclear intensity, 48 h; series mostly up to 46.1 µM
Potency means the concentration at half of the fitted maximal effect; tags describe the fitted curve by direction and shape.

SMILES | Potency
COc1ccc(CNC(=O)C2CCC(CNC(=O)[C@@H]3Cc4ccccc4CN3)CC2)cc1 (some centres not stated) | inconclusive [activator, partial curve, poor fit]
Cc1noc(C)c1NC(=O)Nc1cccc2c1O[C@H](CN(C)C(=O)Nc1ccc(C(F)(F)F)cc1)[C@@H](C)CN([C@H](C)CO)C2=O | inactive
C/C(=N\NC(=O)c1cccc(C)c1O)c1ccc(NC(=O)Cc2ccccc2)cc1 | inconclusive [activator, single point]
Cc1ccc(CNC(=O)C2CCN(S(=O)(=O)c3c(C)noc3/C=C/N(C)C)CC2)cc1 | inconclusive [activator, single point]
Cc1ccc(-c2n[nH]c(=O)c3ccccc23)cc1S(=O)(=O)Nc1ccccc1 | inconclusive [activator, single point]
O=C(Nc1c(-c2ccccc2)nc2c(Br)cc(Br)cn12)c1ccco1 | inconclusive [activator, single point]
CCn1c(=O)c(C(=O)NNC(=O)c2ccccc2Cl)c(O)c2ccccc21 | inactive
Nc1c(-c2ccccc2)cnc2c(-c3ccccc3)cnn12 | inactive
Cc1ccc(S(=O)(=O)C(C#N)c2nc3ccccc3nc2N2CCCC2)cc1 (configuration not stated) | inconclusive [activator, single point]
N#CCOC(=O)C1CSC2(c3ccc(Br)cc3)CCC(=O)N12 (configuration not stated) | inconclusive [activator, partial curve, poor fit]
CCCn1c2ccccc2c2cnn(CC(=O)NCCCN3C(C)CCCC3C)c(=O)c21 (configuration not stated) | inconclusive [activator, single point]
O=C1CCCC(c2ccccc2)N1 (configuration not stated) | inconclusive [activator, single point]
COc1ccccc1C(=O)Nc1ccc2c(c1)CCCN2C(=O)c1cccs1 | inconclusive [activator, single point]
Cc1ccc(-c2csc(NCCc3nc4cc(Cl)c(Cl)cc4n3CCOCCO)n2)cc1 | inconclusive [activator, single point]
O=C(Nc1ccc2nc3n(c(=O)c2c1)CCCCC3)C(=O)N1CCN(c2ccccc2F)CC1 | inconclusive [activator, single point]
CC1CCN(CC(=O)Nc2cccc([N+](=O)[O-])c2)CC1 | inconclusive [activator, partial curve, poor fit]
CCCn1c(SCC(=O)N2N=C3/C(=C/c4ccc(OC)cc4)CCCC3C2c2ccc(OC)cc2)n[nH]c1=O (configuration not stated) | inconclusive [activator, single point]
Cc1ccc(/C=C2/SC(=S)N(CCC(=O)NCCCN3CCOCC3)C2=O)cc1 | inconclusive [activator, full curve]
Cc1cn(Cc2ccccc2Cn2cc(C)c(=O)[nH]c2=O)c(=O)[nH]c1=O | inconclusive [activator, full curve, poor fit]
CC(C)[C@H](CN1CCC[C@H]1CN1C(N)=NC[C@H]1C(C)C)N1C[C@@H](Cc2ccccc2)N(CCCC2CCCC2)C1=N | inconclusive [activator, full curve, poor fit]
OC(CC#CCN1CCCCC1)(c1ccccc1)c1ccccc1 | inactive
O=C(COC(=O)c1ccc([N+](=O)[O-])o1)NC12CC3CC(CC(C3)C1)C2 | inactive
CCOc1ccccc1CNc1ncnc2ccc(-c3c(C)noc3C)cc12 | inconclusive [activator, single point]

SMILES | Potency
CCCn1ncc(CN2CCC(n3nccc3NC(=O)c3ccccc3Cl)CC2)c1C | inconclusive [activator, partial curve, poor fit]
C[C@H]1CN([C@@H](C)CO)C(=O)c2cccc(NC(=O)Nc3ccc(C(F)(F)F)cc3)c2O[C@@H]1CN(C)C(=O)Nc1ccc(F)cc1 | inconclusive [activator, full curve, poor fit]
O=C(CCN1C(=O)/C(=C/c2ccccc2F)SC1=S)NCCc1ccc(O)cc1 | inconclusive [activator, single point]
CC(=O)c1ccc(/C=C/c2nc3ccccc3n2C)o1 | active: 18.4 µM
Cc1ccc(C(=O)O)cc1N1C(=O)c2cccc3c([N+](=O)[O-])ccc(c23)C1=O | active: 18.4 µM
CCc1ccc(NC(=O)C(C)OC(=O)C2CCC(=O)N2)cc1 (configuration not stated) | inconclusive [activator, single point]
Cc1ccccc1N(C(=O)Cc1c[nH]c2ccccc12)C(C(=O)NC1CCCCC1)c1ccco1 (configuration not stated) | inconclusive [activator, single point]
COc1ccc(/C=C2/C(=O)ON=C2c2ccccc2)cc1OC | inconclusive [activator, single point]
COc1cc(C2CC(=O)Oc3c2c(=O)n(C)c2ccccc32)cc(OC)c1OC (configuration not stated) | inactive
COC(=O)c1ccc(-c2nc3ccccc3[nH]2)cc1 | inactive
CCCN(Cc1cc2cc(OC)ccc2[nH]c1=O)C(=O)c1ccncc1 | inconclusive [activator, single point]
COc1ccc(S(=O)(=O)N2CCCC(C(=O)NCc3ccco3)C2)cc1Cl (configuration not stated) | inconclusive [activator, single point]
C=CCNC(=O)C1CC(=O)N(c2ccc(OCC(=O)Nc3ccc(Cl)c(C(F)(F)F)c3)cc2)C1 (configuration not stated) | inconclusive [activator, partial curve, poor fit]
CSc1cccc(CN2CCC(Oc3ccc(C(=O)N4CCCCC4)cc3)CC2)c1 | inactive
C=CCN=c1scc(-c2ccc3c(c2)NC(=O)CO3)n1/N=C(\C)c1ccccn1 | inconclusive [activator, single point]
Cc1cc(C)c(C)c(S(=O)(=O)NCCCN2CCOCC2)c1C | inconclusive [activator, single point]
CC(C)c1ccc(Nc2c([N+](=O)[O-])c(=O)n(C)c3ccccc23)cc1 | inactive
O=C(N/N=C/c1c(O)n(Cc2ccco2)c(=O)[nH]c1=O)c1ccccc1 | inactive
Cc1ccc(Cl)cc1N1CCN(C(CC(C)C)c2nnnn2CC2CCCO2)CC1 (configuration not stated) | active: 2.91 µM
CCc1ccc(/C=C2/Sc3ccccc3N(CC(=O)NCC3CCCO3)C2=O)cc1 (configuration not stated) | inconclusive [activator, single point]
COc1ccc(N(C(=O)c2ccco2)C(C(=O)NC2CCCC2)c2ccc(N3CCOCC3)cc2)c(OC)c1 (configuration not stated) | inactive
Cc1cccc2c1N(CCOc1ccc(C(C)(C)C)cc1)C(=O)C2=O | inconclusive [activator, single point]
CC1CSC(N(C(=O)c2ccc(S(C)(=O)=O)cc2)c2ccc(Cl)cc2)=N1 (configuration not stated) | inactive

SMILES | Potency
CCCC(=O)N1CCN(c2nc3ccc(Cl)cc3s2)CC1 | inconclusive [activator, partial curve, poor fit]
CCOc1cccc2c1OC(c1cc(OC)c(OC)c(OC)c1)N1N=C(c3ccc(C)o3)CC21 (configuration not stated) | inactive
O=C(c1ccc(Cl)cc1)C1CCCN(Cc2cccn2-c2ccccn2)C1 (configuration not stated) | inactive
COc1ccc(C(=O)C2CCCN(C(=O)c3cccnc3SC)C2)c(C)c1 (configuration not stated) | inactive
COC(=O)CSC1=C(C#N)C(c2ccccc2OC)C(C(=O)OC)C(=O)N1 (configuration not stated) | inactive
Cc1ccc(C)c(S(=O)(=O)N2CCNCC2)c1 | inconclusive [activator, partial curve, poor fit]
Cc1cc(N/N=C/c2ccc3c(c2)OCO3)nc2ccccc12 | active: 16.4 µM
Cc1ccc2nc(-c3ccccc3)cn2c1 | inactive
O=C(O)Cn1c(=O)c2c3c(sc2n(Cc2ccc(Cl)cc2Cl)c1=O)CCCC3 | inconclusive [activator, single point]
COc1cc(/C=C(\C#N)c2nc3ccccc3o2)ccc1O | active: 18.4 µM
Fc1ccc(CNc2nc(-c3ccccc3)nc3ccccc23)cc1 | inconclusive [activator, single point]
CCN(CC)C(=O)CN1CCN(c2ncccn2)CC1 | inconclusive [activator, partial curve, poor fit]
O=C1CC(/C=C/c2ccccc2)=Nc2ccccc2N1 | inconclusive [activator, single point]
Cc1ccccc1OCc1nnc(SCC(=O)Nc2ccc3c(c2)OCO3)n1C | inconclusive [activator, partial curve, poor fit]
OC(COc1ccc(Br)cc1)Cn1ccnc1 (configuration not stated) | inactive
CCOC(OCC)c1cn(Cc2ccc(C(=O)c3ccccc3)cc2)nn1 | inconclusive [activator, single point]
O=C(COC(=O)C1CC1)NC(=O)NCc1ccccc1 | inactive
CN(CC(=O)Nc1ccccc1Cl)C(=O)COC(=O)c1cccs1 | inconclusive [activator, single point]
CCCCSc1nc2c(c(=O)[nH]1)CCC2 | inconclusive [activator, partial curve, poor fit]
COC(=O)c1cccc(Nc2nc(-c3cccnc3)nc3ccccc23)c1 | inconclusive [activator, partial curve]
Cc1ccc(S(=O)(=O)N2CCCCC2CCNC(=O)C(=O)NCc2cccnc2)cc1 (configuration not stated) | inconclusive [activator, single point]
